Results from the BET-seq Pho4 binding data (Le et al. 2018).
The other results are listed elsewhere or left out. Values were computed here from the reads of four pooled replicates and scatter widely.

target: T1, Pho4 (S. cerevisiae) (UniProt P07270); assay: relative binding free energy (BET-seq); higher = weaker binding; settings: reference: library average
T1 sequence: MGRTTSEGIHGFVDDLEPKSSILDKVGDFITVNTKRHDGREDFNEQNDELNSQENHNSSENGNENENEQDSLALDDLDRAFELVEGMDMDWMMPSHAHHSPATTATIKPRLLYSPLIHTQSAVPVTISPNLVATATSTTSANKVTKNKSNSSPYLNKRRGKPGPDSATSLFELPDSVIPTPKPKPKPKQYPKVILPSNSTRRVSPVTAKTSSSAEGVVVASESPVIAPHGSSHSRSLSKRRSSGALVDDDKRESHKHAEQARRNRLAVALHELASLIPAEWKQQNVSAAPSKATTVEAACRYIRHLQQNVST

Sequence | relative binding free energy [kcal/mol]
GTAAGCACGTGTTCGG | 0.01
CTTTGCACGTGCAGGT | 0.01
CATTCCACGTGGGTGT | 0.03
CTGAACACGTGATGTG | 0.15
ATGGGCACGTGGACGG | -0.15
GTTTACACGTGAATGT | 0.26
TGTCGCACGTGGCGGA | -0.16
GCGGGCACGTGAGTGG | 0.18
TTTGGCACGTGTAAAT | 0.07
GAGTTCACGTGAGAGT | 0.39
GATGGCACGTGTGAAG | 0.08
AGTAGCACGTGATAGA | 0.02
TAGGCCACGTGGGGAT | -0.08
GAGATCACGTGGGGGG | 0.05
ATATTCACGTGTTAGT | 0.15
TTGTTCACGTGGAGAA | 0.23
TTTTGCACGTGCAATT | 0.11
CTTCGCACGTGCGGGG | -0.1
CTTATCACGTGCGTTA | 0.22
TTTTGCACGTGGAGTC | 0.05
GTGCGCACGTGGACTG | 0.01
CATTACACGTGGTTGA | 0.08
GATCGCACGTGGAAGG | 0.14

Sequence | relative binding free energy [kcal/mol]
AGATTCACGTGAGTGG | 0.35
GGATGCACGTGACAGG | 0.12
TAGGGCACGTGGGACT | -0.21
TTGGGCACGTGGGTTG | -0.18
TAATACACGTGTAAGT | 0.06
CAATGCACGTGGTGTT | -0.11
TGCTGCACGTGAGGTG | 0.17
GTAGACACGTGAGGGG | 0.24
CTATTCACGTGATTGG | 0.33
TGGAACACGTGTGCAG | 0.17
GGTATCACGTGATATA | 0.3
TTAGGCACGTGTATGG | -0.06
GGGGACACGTGGCGGT | 0.01
GGCTTCACGTGGTGAA | 0.22
TATGACACGTGGTTGG | -0.05
CGAAGCACGTGTAAGG | 0.06
CTTGTCACGTGCATTT | 0.07
CGGTACACGTGGTGGA | -0.08
ATATGCACGTGGATGA | 0.03
GGGGACACGTGTTTGA | 0.18
TTCTTCACGTGGGGAA | 0.12
TAGGGCACGTGGAGTC | 0
AAGTGCACGTGTCCGG | 0.11

Sequence | relative binding free energy [kcal/mol]
CAAGTCACGTGCGGGG | 0.13
AGGTTCACGTGTAATG | 0.23
TTTGTCACGTGTGGGC | 0.18
GTCTACACGTGAGTGT | 0.28
TCTTTCACGTGAGTAT | 0.32
GTTTGCACGTGATAGC | 0.06
GGTAACACGTGGAGGA | 0.07
AGAGACACGTGGTGGT | -0.07
TGTAACACGTGATGTT | 0.12
CTTTGCACGTGGTAGC | -0.04
ATTTTCACGTGTGTTT | 0.37
GTGCTCACGTGCGGGT | -0.01
GTTTTCACGTGAATGT | 0.42
TTAATCACGTGATTTT | 0.3
TTGTACACGTGCGAGT | 0.08
GTTTGCACGTGTTAGT | 0.11
CTGGACACGTGTGGTA | 0.11
TGGCGCACGTGGGAGT | -0.2
TGATACACGTGAGATG | 0.36
TGATGCACGTGGAGAG | 0.12
TAGCGCACGTGATGGT | 0.03
GTGGTCACGTGGTTAC | 0.17
GTGTCCACGTGTTATG | 0.13

Sequence | relative binding free energy [kcal/mol]
TATATCACGTGTCTTA | 0.21
ATTACCACGTGATGTG | 0.17
GTAATCACGTGATTAG | 0.24
AGGGGCACGTGATCTT | 0.04
AATGGCACGTGTTCAG | -0.08
TTGGCCACGTGGTAGT | 0
GTTAGCACGTGACTGG | 0.04
GCTTACACGTGGTTAG | 0.11
TGCAGCACGTGGGATG | -0.03
GTTGTCACGTGGGAGG | -0.03
TTGATCACGTGGTTGT | 0.08
TTTGTCACGTGGCTCT | -0.08
CGGGTCACGTGTGGAA | 0.13
CGTATCACGTGGTATT | 0.02
TGTGTCACGTGCGATT | 0.19
TTTGGCACGTGCGAAA | -0.14
TGAAGCACGTGGAGTA | -0.13
GTATGCACGTGGGTTC | 0.06
GTTCACACGTGGGGTT | 0.04
ATAAACACGTGTAGGG | 0.19
GGGGGCACGTGCGGGA | -0.04
ATTTACACGTGATTTG | 0.15
TTTTCCACGTGAGATT | 0.33

Sequence | relative binding free energy [kcal/mol]
TGGTTCACGTGTTAAC | 0.2
AAGCTCACGTGGTGTT | 0.14
AGGCTCACGTGGGTTG | 0.06
GTGCGCACGTGCGGGA | -0.18
TATCCCACGTGGGTTG | -0.13
TGAGTCACGTGAGGGA | 0.33
GTCTACACGTGAGGTT | 0.46
ACATGCACGTGGGGAG | -0.17
CTTTTCACGTGAGGCT | 0.34
TGTCTCACGTGGTGAG | 0.14
TTGCGCACGTGACTTT | 0.16
GCTTTCACGTGCAGTT | 0.37
TGGCTCACGTGGTGAG | 0.23
GCTATCACGTGGGTTG | 0.01
ATGGGCACGTGGTAGG | -0.12
GTGTTCACGTGTTGCA | 0.2
GTGGTCACGTGTATCG | 0.14
CGCTGCACGTGGGGCT | -0.24
TGTCGCACGTGTGTTA | -0.18
TGTGTCACGTGGGACC | -0.06
AAATTCACGTGAGTTA | 0.31
TGATACACGTGGGGGG | 0.02
GGTCACACGTGCTGGT | 0.11
